Source: paper PMC4336329 (PLoS ONE, 2015)
Hit rate of the full screen: of about 310,000 compounds, about 2,200 (0.71%) showed an effect of 50% or more. Effects have a minus sign here. This is one part of the list.

What follows are compounds tested against human ether-à-go-go-related gene (hERG) potassium channel (human, UniProt Q12809) (assay: primary screen, population patch clamp on CHO cells stably expressing hERG).
Sequence of human ether-à-go-go-related gene (hERG) potassium channel (Q12809 whole entry, looked up): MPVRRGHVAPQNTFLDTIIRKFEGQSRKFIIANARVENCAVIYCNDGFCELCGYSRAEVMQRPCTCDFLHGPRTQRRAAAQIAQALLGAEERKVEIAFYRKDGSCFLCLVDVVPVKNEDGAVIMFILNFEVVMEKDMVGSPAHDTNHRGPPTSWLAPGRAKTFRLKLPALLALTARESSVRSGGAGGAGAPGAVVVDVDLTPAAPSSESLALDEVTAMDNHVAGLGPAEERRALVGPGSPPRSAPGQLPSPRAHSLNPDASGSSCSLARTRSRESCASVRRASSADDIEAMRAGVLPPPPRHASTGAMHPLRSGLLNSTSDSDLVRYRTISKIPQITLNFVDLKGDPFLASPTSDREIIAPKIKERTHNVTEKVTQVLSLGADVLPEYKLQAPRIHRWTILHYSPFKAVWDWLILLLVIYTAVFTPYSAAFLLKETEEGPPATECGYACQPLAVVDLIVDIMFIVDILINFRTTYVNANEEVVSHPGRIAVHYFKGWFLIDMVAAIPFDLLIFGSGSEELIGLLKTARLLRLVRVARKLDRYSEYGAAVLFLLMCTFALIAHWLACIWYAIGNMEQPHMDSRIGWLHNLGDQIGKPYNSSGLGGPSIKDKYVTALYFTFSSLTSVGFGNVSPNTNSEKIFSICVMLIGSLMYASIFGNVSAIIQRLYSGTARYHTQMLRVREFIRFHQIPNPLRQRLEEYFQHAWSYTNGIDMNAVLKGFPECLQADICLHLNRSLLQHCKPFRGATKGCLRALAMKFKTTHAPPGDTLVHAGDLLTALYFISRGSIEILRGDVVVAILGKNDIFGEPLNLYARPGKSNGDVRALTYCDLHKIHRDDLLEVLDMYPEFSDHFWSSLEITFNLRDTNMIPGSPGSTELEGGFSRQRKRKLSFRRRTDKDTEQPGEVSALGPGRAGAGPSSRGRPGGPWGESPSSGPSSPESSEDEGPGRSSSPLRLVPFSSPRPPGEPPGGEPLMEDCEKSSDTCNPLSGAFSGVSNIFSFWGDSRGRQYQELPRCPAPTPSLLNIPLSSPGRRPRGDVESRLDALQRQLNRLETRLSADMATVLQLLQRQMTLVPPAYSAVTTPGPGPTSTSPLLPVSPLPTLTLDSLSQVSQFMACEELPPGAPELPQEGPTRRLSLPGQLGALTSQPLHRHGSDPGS

Compound | hERG current change (%, negative = inhibition) at 1uM
CC1CCN(Cc2nnnn2CCCC(=O)NCC(C)(C)N2CCOCC2)CC1 | 10.4%
COc1cc(C=O)ccc1OCCOCCOc1ccccc1Cl | 6.08%
CNC(=O)c1ccsc1NC(=O)c1ccccc1 | 1.95%
Nc1nc(NCc2ccco2)nc(N2CCOCC2)c1[N+](=O)[O-] | 13.5%
Cc1ccnc(NS(=O)(=O)c2ccc(NC(=O)c3oc4ccccc4c3C)cc2)n1 | 17.9%
COc1ccc(Oc2c(Cl)cnn(-c3ccc(C)cc3)c2=O)cc1 | 15.1%
Cc1ccc2[nH]c(=O)c(N3CCOCC3)c(-c3ccccc3)c2c1 | 10.9%
Cc1ccnc(SCC(=O)N2CCN(C(c3ccccc3)c3ccccc3)CC2)n1 | 21.9%
COc1ccc2nc3cc(Cl)ccc3c(C#N)c2c1 | 3.14%
Cc1ccc(NC(=O)CN(C)C(=O)COc2c(Cl)cc(Cl)c3ccc(C)nc23)cc1 | -2.15%
COc1ccccc1NS(=O)(=O)c1cc(NC(=O)CNC(=O)c2cc(C)cc(C)c2)ccc1C | 5.7%
CCCCc1cc(=O)oc2cc(OCC(=O)N[C@@H](Cc3ccccc3)C(=O)O)ccc12 | 10.9%
COc1ccc(CN2C(=O)NC3(CCCCCC3)C2=O)cc1F | 7.71%
Cc1ccc(C(=O)OCC(=O)Nc2ccc3c(c2)OCO3)o1 | 15.8%
CCN(CC)S(=O)(=O)c1cc(NC(=O)c2cc([N+](=O)[O-])ccc2N2CCOCC2)ccc1C | 10.4%
O=C(O)CSc1nc2ccccc2c(=O)[nH]1 | 5.95%
CCC(C)(C)NC(=O)C(c1cccc(OC)c1)N(C(=O)CNC(=O)c1cccs1)c1cccnc1 (stereo not shown) | 12.1%
Cc1ccc(CN2CC(C(=O)O)CC2=O)cc1 (stereo not shown) | 0.902%
c1ccc(N2CCN(Cc3cn4ccccc4n3)CC2)cc1 | 11.8%
Cc1ccc(-n2ncc3c(SCC(=O)NNC(=O)C(C)C)ncnc32)cc1 | 24.1%
c1ccc(C2=NCCCN2)cc1 | 12.1%
COc1ccc(CCNC2CC(C)N(C)CC2C)cc1OC.Cl (stereo not shown) | 8.57%

Compound | hERG current change (%, negative = inhibition) at 1uM
CCOC(=O)c1sc(C)c2c1NC(C)(c1cccc3ccccc13)NC2=O (stereo not shown) | 12.7%
CC(C)(C)c1ccc(S(=O)(=O)N2CCCCC2C(=O)NCc2ccccn2)cc1 (stereo not shown) | -9.99%
CCOC(=O)N1CCN(C(=O)c2ccc(CN(c3ccccc3)S(C)(=O)=O)cc2)CC1 | 13.2%
O=C(C[n+]1ccc(C(=O)N/N=C/c2ccc(Br)cc2)cc1)c1ccccc1.[Br-] | -32.5%
CCCCN(C)CCNC(=O)c1cc(-c2cccnc2)nc2ccc(S(=O)(=O)N3CCC(C)CC3)cc12 | 2.78%
CN(C)c1ccc(Nc2cc(Cl)ncn2)cc1 | 7.5%
O=c1cc(CO)oc(CN2CCN(c3ccccc3F)CC2)c1O | 9.28%
COC(=O)c1c(NC(=O)CCc2ccc(C)o2)sc(C)c1C | 10.4%
O=CN1CCCN(C(=O)CC2C(=O)NCCN2Cc2cccc(Oc3ccccc3)c2)CC1 (stereo not shown) | -14.6%
CCOc1ccc(NC(=O)CN(C)CC(=O)Nc2ccc(Br)cc2F)cc1OCC | -1.74%
COc1ccc(CC(NC(C)=O)C(=O)N2CCN(C(=O)N(C(C)C)C(C)C)CC2)cc1 (stereo not shown) | 4.41%
Cn1c2ccccc2c(=O)c2c(=O)n(Cc3ccco3)c(-c3ccc(F)cc3)nc21 | 6.3%
Oc1ccccc1C1N=C(c2ccccc2)NC(c2ccccc2)=N1 | 10.8%
O=c1c2ccccc2n(CC(O)CN2CCCCC2)c2ccccc12 (stereo not shown) | -4.43%
Cn1cc(C(=O)N/N=C/c2ccc3c(c2)OCO3)c2ccccc21 | 12.4%
C=CCNc1nc(NCCN2CCOCC2)nc(N2CCOCC2)n1 | 18.1%
CCOC(=O)c1ccc(N2C(=O)CC(N3CCN(C(=O)c4ccccc4)CC3)C2=O)cc1 (stereo not shown) | 1.21%
O=C(NCC(Cl)c1ccc2ccccc2c1)c1c(F)cccc1F (stereo not shown) | 18.8%
O=C(COC(=O)c1ccc(N2CCCC2=O)cc1)Nc1ccccc1 | 17.8%
CNC(=S)NNC(=O)COc1cccc(C)c1C | 16.7%
COc1ccccc1N(CC(=O)Nc1cccnc1)S(=O)(=O)c1ccccc1 | 1.18%
O=C(O)CCC(=O)c1c[nH]c2ccccc12 | -9.58%

Compound | hERG current change (%, negative = inhibition) at 1uM
C/C(=N\NC(=O)c1ccc(Cl)cc1)c1cccc(NC(=O)C(C)C)c1 | 6.39%
CCN(CC)CCn1c(OC)cc(=O)[nH]c1=O | 19.4%
O=C(NCc1cccc(Cl)c1)c1ccc(S(=O)(=O)Nc2cccc(C(F)(F)F)c2)cc1 | 15.4%
Cc1ccn(CCC(=O)Nc2ccc(-c3ccno3)cc2)n1 | 5.53%
COc1ccc([N+](=O)[O-])cc1NC(=S)NC(NC(=O)C(c1ccccc1)c1ccccc1)C(Cl)(Cl)Cl (stereo not shown) | 5.06%
O=C(NCC1(c2ccccc2)CCCC1)c1ccco1 | 3.89%
CCOc1ccc(NS(=O)(=O)c2ccc(C(=O)N(C)CC(=O)Nc3ccc(OC)cc3)cc2)cc1 | 4.46%
Cc1c(OC(C(=O)O)c2ccccc2)ccc2c(-c3ccccc3)cc(=O)oc12 (stereo not shown) | 6.4%
O=C(c1cccs1)N1CCC(c2nc3ccccc3s2)CC1 | -9.48%
CC(=O)NC(Cc1c[nH]c2ccccc12)C(=O)O (stereo not shown) | 0.653%
Br.Cc1ccc(Cn2c(=N)n(CC(=O)c3ccccc3)c3ccccc32)cc1 | -16.4%
COc1cc(C(C)=O)ccc1OCC(=O)N1CCc2ccccc2C1 | 9.79%
COc1cccc(OC)c1CC1SC(=O)NC1=O (stereo not shown) | 7.86%
COc1ccc2c(C)cc(SCC(=O)N3CCOCC3)nc2c1 | -6.4%
CCN(CC(=O)Nc1cc(Cl)ccc1-n1cncn1)Cc1nc2ccccc2c(=O)[nH]1 | -7.81%
COc1ccccc1N(CC(=O)N(c1ccccc1)C(C)C)S(=O)(=O)c1cccs1 | 5.66%
Cc1ccc(Sc2c(C)nn(C(=O)c3cccc(S(=O)(=O)N4CCOCC4)c3)c2C)cc1 | -2.68%
O=C(COC(=O)c1ccccc1SCC(=O)N1CCCC1)Nc1ccccc1OC(F)F | 10.7%
Br.Brc1ccc(-c2csc(NNC3=NCCCCC3)n2)cc1 | 9.68%
CC(CCc1ccccc1)NC(=O)CNC(=O)COc1ccccc1 (stereo not shown) | 8.29%
O=C(Nc1c(F)cc(F)cc1Br)c1cc2nc(C(F)F)cc(C(F)F)n2n1 | 6.33%
O=C(NCCc1ccc(O)cc1)c1ccc(Cl)cc1 | 4.07%

Compound | hERG current change (%, negative = inhibition) at 1uM
Cc1nn(-c2ccccc2)c2[nH]c(=O)c(CNCC3CCCO3)cc12 (stereo not shown) | 12.1%
Clc1ccc(N2CCN(Cc3ccco3)CC2)cc1 | 4.97%
CCn1ccnc1C(O)(c1ccccc1)c1ccccc1 | 6.77%
CCN1CCN(C(=O)COc2ccc(S(=O)(=O)N3CCOCC3)cc2Cl)CC1 | 11.6%
C/C(=N\OCC(=O)OCC(=O)NC(=O)c1ccc(OC(F)F)cc1)c1ccc2c(c1)OCO2 | -12.5%
CC(C(=O)N1CCOCC1)N1C(=O)C2C3CC(C(Br)C3Br)C2C1=O (stereo not shown) | 6.77%
Cc1[nH]c2ccccc2c1C(c1ccccn1)N1CCC(C(N)=O)CC1 (stereo not shown) | 2.5%
CCc1ccc(OCCCC(=O)Nc2ccc(N3CCOCC3)cc2)cc1 | 15.3%
Cn1nc([N+](=O)[O-])nc1Sc1nnnn1-c1cccc(C(=O)O)c1 | 15.1%
O=C(Nc1ccc(F)cc1)N(Cc1ccco1)Cc1cc2cc3c(cc2[nH]c1=O)OCO3 | 13.8%
CCCn1c(N)c(Sc2ccccc2[N+](=O)[O-])c(=O)n(CCC)c1=O | 4.27%
Cn1c(C(=O)N2CCCC(C(=O)NCCCc3ccccc3)C2)cc2sccc21 (stereo not shown) | -23.5%
CCOc1cc(S(=O)(=O)NCCc2cccc(C)c2)c(OCC)cc1-n1cnnn1 | 4.82%
O=C(CCC1CCCCC1=O)c1ccccc1 (stereo not shown) | 10.8%
Clc1ccc(CNc2ccccn2)cc1 | 3.11%
Cc1cc(/C=N/n2cnnc2)c(C)n1-c1cc(Cl)ccc1Cl | -1.87%
COc1ccccc1CNC(=O)COc1ccc([N+](=O)[O-])cc1 | 5.93%
CCCCC#Cc1cncc(C(=O)N/N=C/c2ccccc2)c1 | 12.6%
O=C(NCCCN1CCOCC1)C1Nc2ccc(OC(F)(F)F)cc2C2C=CCC12 (stereo not shown) | -0.058%
CCCn1c(CC)nc([N+](=O)[O-])c1S(=O)(=O)c1ccccc1 | -1.6%
CC1=C(NCCc2ccccc2)CCC1=O | 8.22%
O=C(NCc1cccnc1)Nc1cccc(Cl)c1Cl | 10.7%
